31 molecules from paper PMC9911399, “Two distinct binding modes provide the RNA-binding protein RbFox with extraordinary sequence specificity” can be followed below.

The labels stand for the following.
T1: RBFOX1 RRM (Homo sapiens, UniProt Q9NWB1 109-208)
T1 sequence: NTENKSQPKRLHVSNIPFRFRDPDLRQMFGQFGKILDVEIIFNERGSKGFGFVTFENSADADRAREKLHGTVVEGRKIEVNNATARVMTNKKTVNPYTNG

B1: CAGUGAG (DNA:RNA)
RNA: GGGAGACCGGAAUUCAGAUUGUCCCAGUGAGUUAAAUCCCGUCGUAGCCACCA
DNA 1: CAATCTGAATTCCGGTCTCCC
DNA 2: TGGTGGCTACGACGGGATT
B2: UCAGUUU (DNA:RNA)
RNA: GGGAGACCGGAAUUCAGAUUGUCCUCAGUUUUUAAAUCCCGUCGUAGCCACCA
DNA 1: CAATCTGAATTCCGGTCTCCC
DNA 2: TGGTGGCTACGACGGGATT
B3: CACACUU (DNA:RNA)
RNA: B1 RNA with G27C, U28A, G29C, A30U, G31U
DNA 1: CAATCTGAATTCCGGTCTCCC
DNA 2: TGGTGGCTACGACGGGATT
B4: CCAGCGA (DNA:RNA)
RNA: B2 RNA with U25C, U29C, U30G, U31A
DNA 1: CAATCTGAATTCCGGTCTCCC
DNA 2: TGGTGGCTACGACGGGATT
B5: GGAUAGU (DNA:RNA)
RNA: B2 RNA with U25G, C26G, G28U, U29A, U30G
DNA 1: CAATCTGAATTCCGGTCTCCC
DNA 2: TGGTGGCTACGACGGGATT
B6: GAAAGCG (DNA:RNA)
RNA: B1 RNA with C25G, G27A, U28A, A30C
DNA 1: CAATCTGAATTCCGGTCTCCC
DNA 2: TGGTGGCTACGACGGGATT
B7: GUAAUGG (DNA:RNA)
RNA: B2 RNA with U25G, C26U, G28A, U30G, U31G
DNA 1: CAATCTGAATTCCGGTCTCCC
DNA 2: TGGTGGCTACGACGGGATT
B8: CAAAAUU (DNA:RNA)
RNA: B2 RNA with U25C, C26A, G28A, U29A
DNA 1: CAATCTGAATTCCGGTCTCCC
DNA 2: TGGTGGCTACGACGGGATT
B9: CAUUCAG (DNA:RNA)
RNA: B1 RNA with G27U, G29C
DNA 1: CAATCTGAATTCCGGTCTCCC
DNA 2: TGGTGGCTACGACGGGATT
B10: GAAGUGC (DNA:RNA)
RNA: B2 RNA with U25G, C26A, U30G, U31C
DNA 1: CAATCTGAATTCCGGTCTCCC
DNA 2: TGGTGGCTACGACGGGATT
B11: UAGCCUA (DNA:RNA)
RNA: B1 RNA with C25U, U28C, G29C, A30U, G31A
DNA 1: CAATCTGAATTCCGGTCTCCC
DNA 2: TGGTGGCTACGACGGGATT
B12: CUGCUGG (DNA:RNA)
RNA: B1 RNA with A26U, U28C, G29U, A30G
DNA 1: CAATCTGAATTCCGGTCTCCC
DNA 2: TGGTGGCTACGACGGGATT
B13: CAUUACA (DNA:RNA)
RNA: B1 RNA with G27U, G29A, A30C, G31A
DNA 1: CAATCTGAATTCCGGTCTCCC
DNA 2: TGGTGGCTACGACGGGATT
B14: CAAUCGG (DNA:RNA)
RNA: B1 RNA with G27A, G29C, A30G
DNA 1: CAATCTGAATTCCGGTCTCCC
DNA 2: TGGTGGCTACGACGGGATT
B15: ACCCAUA (DNA:RNA)
RNA: B2 RNA with U25A, A27C, G28C, U29A, U31A
DNA 1: CAATCTGAATTCCGGTCTCCC
DNA 2: TGGTGGCTACGACGGGATT
B16: AUCCAUU (DNA:RNA)
RNA: B2 RNA with U25A, C26U, A27C, G28C, U29A
DNA 1: CAATCTGAATTCCGGTCTCCC
DNA 2: TGGTGGCTACGACGGGATT
B17: CAAAGCG (DNA:RNA)
RNA: B1 RNA with G27A, U28A, A30C
DNA 1: CAATCTGAATTCCGGTCTCCC
DNA 2: TGGTGGCTACGACGGGATT
B18: GGGCACG (DNA:RNA)
RNA: B1 RNA with C25G, A26G, U28C, G29A, A30C
DNA 1: CAATCTGAATTCCGGTCTCCC
DNA 2: TGGTGGCTACGACGGGATT
B19: UUUCUUG (DNA:RNA)
RNA: B2 RNA with C26U, A27U, G28C, U31G
DNA 1: CAATCTGAATTCCGGTCTCCC
DNA 2: TGGTGGCTACGACGGGATT
B20: GAGACUU (DNA:RNA)
RNA: B1 RNA with C25G, U28A, G29C, A30U, G31U
DNA 1: CAATCTGAATTCCGGTCTCCC
DNA 2: TGGTGGCTACGACGGGATT
B21: GAUAGUC (DNA:RNA)
RNA: B1 RNA with C25G, G27U, U28A, A30U, G31C
DNA 1: CAATCTGAATTCCGGTCTCCC
DNA 2: TGGTGGCTACGACGGGATT
B22: ACCAGGU (DNA:RNA)
RNA: B2 RNA with U25A, A27C, G28A, U29G, U30G
DNA 1: CAATCTGAATTCCGGTCTCCC
DNA 2: TGGTGGCTACGACGGGATT
B23: UCCCGUG (DNA:RNA)
RNA: B2 RNA with A27C, G28C, U29G, U31G
DNA 1: CAATCTGAATTCCGGTCTCCC
DNA 2: TGGTGGCTACGACGGGATT
B24: GUUGUAG (DNA:RNA)
RNA: B1 RNA with C25G, A26U, G27U, U28G, G29U
DNA 1: CAATCTGAATTCCGGTCTCCC
DNA 2: TGGTGGCTACGACGGGATT
B25: GUUGCGA (DNA:RNA)
RNA: B2 RNA with U25G, C26U, A27U, U29C, U30G, U31A
DNA 1: CAATCTGAATTCCGGTCTCCC
DNA 2: TGGTGGCTACGACGGGATT
B26: AUGCCCA (DNA:RNA)
RNA: B1 RNA with C25A, A26U, U28C, G29C, A30C, G31A
DNA 1: CAATCTGAATTCCGGTCTCCC
DNA 2: TGGTGGCTACGACGGGATT
B27: UGCGUGA (DNA:RNA)
RNA: B2 RNA with C26G, A27C, U30G, U31A
DNA 1: CAATCTGAATTCCGGTCTCCC
DNA 2: TGGTGGCTACGACGGGATT
B28: GCCACCC (DNA:RNA)
RNA: B2 RNA with U25G, A27C, G28A, U29C, U30C, U31C
DNA 1: CAATCTGAATTCCGGTCTCCC
DNA 2: TGGTGGCTACGACGGGATT
B29: UAUCCGG (DNA:RNA)
RNA: B1 RNA with C25U, G27U, U28C, G29C, A30G
DNA 1: CAATCTGAATTCCGGTCTCCC
DNA 2: TGGTGGCTACGACGGGATT
B30: UACAAUG (DNA:RNA)
RNA: B1 RNA with C25U, G27C, U28A, G29A, A30U
DNA 1: CAATCTGAATTCCGGTCTCCC
DNA 2: TGGTGGCTACGACGGGATT
B31: GCAAUCC (DNA:RNA)
RNA: B2 RNA with U25G, G28A, U30C, U31C
DNA 1: CAATCTGAATTCCGGTCTCCC
DNA 2: TGGTGGCTACGACGGGATT

Residue numbers refer to the chain shown, from its start. This is one part of the list.

In this assay the target is T1, RBFOX1 RRM. Put plainly: EMSA; HiTS-Eq, 1 nM pool, 10 min; buffer printed only for the single-RNA assays: 10 mM Tris pH 7.5, 150 mM NaCl, 3.4 mM EDTA, 0.001% NP-40, 30 C. The note with it: tags: His6 N-terminal (pET28a); label: 5' 32P. In short, it runs like this: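 Purified RbFox RRM, wild type or mutant, was incubated for 10 min in 50 µL with 1 nM of a 5′-radiolabelled RNA pool carrying 7 randomized nucleotides, whose flanks were annealed to DNA oligonucleotides, over a series of increasing protein concentrations. Unbound RNA was resolved on 8% native PAGE, cut out, reverse-transcribed, barcoded by PCR and sequenced on an Illumina HiSeq 2500. Relative association constants were derived from changes in read counts for each RNA species versus the control reaction and normalised to the cognate motif.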
Background: Mobility shift assays separate free from complexed probe on a gel.
As for B1, the binding signal was 0.00726 KA relative to UGCAUGU. The value for B2 was 0.00938 KA relative to UGCAUGU; that for B3 was 0.000327 KA relative to UGCAUGU. In the case of B4, the binding signal is 0.00889 KA relative to UGCAUGU. The same measure for B5: 0.0169 KA relative to UGCAUGU. Take B6: the binding signal was 0.0114 KA relative to UGCAUGU.

For the molecule B7, the binding signal is 0.0117 KA relative to UGCAUGU. The same measure for B8: 0.00052 KA relative to UGCAUGU; for B9: 0.00522 KA relative to UGCAUGU; for B10: 0.0195 KA relative to UGCAUGU.

As to B11, the binding signal is 0.00397 KA relative to UGCAUGU. The value for B12 was 0.0205 KA relative to UGCAUGU; that for B13 was 0.000751 KA relative to UGCAUGU; that for B14 was 0.00617 KA relative to UGCAUGU. Turning to B15, the binding signal was 0.00387 KA relative to UGCAUGU. The value for B16 was 0.00038 KA relative to UGCAUGU. The value for B17 was 0.00468 KA relative to UGCAUGU. In the case of B18, the binding signal was 0.0317 KA relative to UGCAUGU.

Consider B19, for which the binding signal is 0.0222 KA relative to UGCAUGU. The value for B20 was 0.0106 KA relative to UGCAUGU; that for B21 was 0.0209 KA relative to UGCAUGU; that for B22 was 0.00472 KA relative to UGCAUGU. The same measure for B23: 0.0166 KA relative to UGCAUGU; for B24: 0.0152 KA relative to UGCAUGU. As for B25, the binding signal is 0.0206 KA relative to UGCAUGU. Turning to B26, the binding signal is 0.00614 KA relative to UGCAUGU. The value for B27 was 0.0231 KA relative to UGCAUGU. The same measure for B28: 0.00421 KA relative to UGCAUGU; for B29: 0.00956 KA relative to UGCAUGU; for B30: 0.00916 KA relative to UGCAUGU. On to B31, for which the binding signal was 0.00851 KA relative to UGCAUGU.
